# Source: PubChem BioAssay AID485297 (National Center for Advancing Translational Sciences (NCATS), 2010)
# In all, about 320,000 compounds went through this assay and about 9,100 (2.8%) were called active. This list was built around the results that the source calls inconclusive (neither active nor inactive); the mix of calls is not that of the screen. Calls follow the shape of the dose curve; as a rule, active = well fitted activation curve with a large enough effect; inconclusive = small, poorly fitted or top-dose-only effect; inactive = no such curve, though single readings can be large or run the other way. No potency is given beside an inconclusive call; the fits are too rough.
# Test: qHTS Assay for Rab9 Promoter Activators; also: nearly all actives have a fitted effect of over 60% in size; as to activation, negative = inhibition: % of control where 0% means no effect
# Conditions: Huh7 Rab9 promoter-luciferase reporter, luminescence, 24 h; series mostly up to 9.22 µM; activation, negative = inhibition: at the top concentration
# Summary of the method: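 Luciferase signal after 10 min detection reagent at ambient indicates Rab9 promoter upregulation; stably transfected Huh7 cells were treated 24 h with compound in DMSO at 37 °C, 5% CO2.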
# Potency is read from the fitted curve at half-maximal effect; tags tell the direction and shape of the fitted curve.
SMILES,"activation, negative = inhibition",Potency
Cc1ccc(C(=O)OCC(=O)Nc2cc(C(C)(C)C)no2)c(C)c1,inactive: -2.98%,–
CCc1cc2c(=O)[nH]c(-c3ccccn3)nc2s1,–,"inconclusive [activator, full curve]"
CC(=O)Nc1ccccc1OCc1cnc(Cl)s1,inactive: -0.17%,–
Cc1cccc(-n2nnc(C(=O)N3CCc4ccccc4C3)c2N)c1,inactive: 25.1%,–
CCN(CC)S(=O)(=O)c1cccc(NC(=O)c2ccc(Br)cc2)c1,inactive: -8.28%,–
CC1=NN(c2ccccc2)C(=O)/C1=C\c1cn(C)c2ccccc12,inactive: 2.34%,–
O=C(NCC1CCCO1)c1cc2ccccc2cc1O (configuration not stated),–,"inconclusive [activator, partial curve]"
Cc1ccc(C(=O)N/N=C\c2ccc(-c3ccc(Cl)c(Cl)c3)o2)cn1,inactive: -6.34%,–
Cn1nccc1C(=O)N/N=C/c1c(O)ccc2ccccc12,inactive: -42.3%,–
CSCC(=O)Nc1nc(-c2ccc3c(c2)OCCO3)cs1,–,active: 2.82 µM
CCOC(=O)Nc1nnc(-c2ccc(OC)cc2)s1,–,"inconclusive [activator, single point]"
Cc1ccc(CONC(=O)c2ccc(C)cc2)cc1,–,"inconclusive [activator, single point]"
CCCn1nc2cc(C(=O)NCCc3cccs3)ccc2c1OCC,–,"inconclusive [activator, partial curve]"
CN1CCN(CCCNC(=O)Nc2ccc([N+](=O)[O-])cc2)CC1,inactive: -7.36%,–
O=C(COc1ccccc1)Nc1ccc(-c2nnc(-c3ccco3)o2)cc1,–,active: 1.12 µM
c1ccc(Oc2cc(-c3ccccc3)ncn2)cc1,–,"inconclusive [activator, single point]"
C#CCn1c(S(=O)(=O)Cc2ccc(C)cc2)nc(-c2ccccc2)c1-c1ccccc1,inactive: 0.351%,–
C/C(=N\NC(=O)c1ccccn1)c1ccc(Cl)cc1,–,active: 0.562 µM
Cc1ccc(C(=O)NCC(=O)N(C)CC(=O)Nc2ccccc2Br)s1,inactive: 0.47%,–
CC(C)(C)CC(=O)Nc1ccc(-c2cn3cccnc3n2)cc1,–,"inconclusive [activator, full curve]"
CCOC(=O)c1ccc(NC(=O)C(CC)CC)cc1,–,"inconclusive [activator, partial curve]"

SMILES,"activation, negative = inhibition",Potency
COc1ccc(C2=NN(CN3C(=O)C(=O)c4ccccc43)C(c3ccc(C)cc3)C2)cc1 (configuration not stated),–,"inconclusive [activator, single point]"
O=C(Cc1ccccc1)NC(=S)Nc1ccc2oc(-c3ccccc3F)nc2c1,–,"inconclusive [activator, single point]"
Cc1ccc(C)c(N(C(=O)c2csnn2)C(C(=O)NC2CCCCC2)c2ccncc2)c1 (configuration not stated),inactive: 0.589%,–
NC(=S)c1ncc(C(F)(F)F)cc1Cl,inactive: -3%,–
CC(C)CCNCC1OCc2ccccc2CO1,inactive: -5.02%,–
COC(=O)c1sc2ccccc2c1-n1cccc1C(=O)C(=O)Nc1ccc(C)cc1,–,"inconclusive [activator, partial curve]"
CCN(CC(=O)NCc1ccc(Cl)cc1)C(=O)/C=C/c1ccccc1,inactive: 3.72%,–
C#CCNC(=O)C1=C[C@H](c2csc3ccccc23)C[C@H](OCCCCO)O1,inactive: 0.499%,–
Cc1nn(-c2ccc(Cl)cc2Cl)c(=O)c2ccccc12,inactive: -0.662%,–
Cc1ccc(-c2nc3ccccc3[nH]2)cc1NC(=O)/C=C/c1ccco1,–,"inconclusive [activator, partial curve]"
O=S(=O)(c1cccc(-c2nnc(SCc3nc4ccccc4s3)o2)c1)N1CCOCC1,–,"inconclusive [activator, partial curve]"
O=C(NCc1ccccc1Cl)C1CC(=O)N(Cc2ccccc2)C1 (configuration not stated),inactive: 0.409%,–
COC(=O)Nc1nnc(COc2ccccc2)s1,inactive: 1.11%,–
O=C(O)c1cn(-c2ccccc2)c(=O)c2ccccc12,inactive: 2.69%,–
O=C(NNc1nc2ccccc2o1)c1ccccc1,–,active: 0.794 µM
CCOC(=O)N1CCN(C(=O)CSCc2ccccc2)CC1,–,"inconclusive [activator, partial curve]"
COc1ccc(C(=O)NC(=O)NC2(C(Cl)(Cl)Cl)OCCO2)cc1,–,active: 0.251 µM
COc1ccc(S(=O)(=O)N2CCN(S(=O)(=O)c3ccc(OC)cc3)CC2)cc1,–,"inconclusive [activator, single point]"
CSc1cccc(NC(=O)c2ccccn2)c1,–,active: 3.98 µM
COc1cc(NC(=O)n2ncc3cc(Cl)ccc32)cc(OC)c1,–,"inconclusive [activator, single point]"
CCCc1nc2ccc(NC(C)=O)cc2c(=O)n1Cc1ccc(Cl)cc1,–,"inconclusive [activator, partial curve]"

SMILES,"activation, negative = inhibition",Potency
Cc1cccc(NC(=O)C(C)SCc2nc3sc4c(c3c(=O)[nH]2)CCCC4)n1 (configuration not stated),inactive: -7.44%,–
NC(=O)c1c(NC(=O)c2cccnc2)sc2c1CCCC2,–,"inconclusive [activator, partial curve]"
O=C(c1ccc([N+](=O)[O-])s1)N1CCc2ccccc21,inactive: 28.7%,–
O=C(Nc1nccs1)c1ccc(N2C(=O)[C@@H]3[C@H](C2=O)[C@H]2C=C[C@@H]3C2)cc1,–,active: 3.55 µM
COc1ccc(-n2nc3cc(C)c(NC(=O)c4cccnc4)cc3n2)cc1,–,"inconclusive [activator, single point]"
CSc1nc(S(=O)(=O)c2ccc(C)cc2)c(Cl)s1,–,"inconclusive [activator, single point]"
O=C(NC(=S)Nc1ccccn1)c1ccccc1,–,active: 0.126 µM
O=c1cc(-c2ccccc2F)oc2ccccc12,–,active: 2.24 µM
CC#CC(=O)N1CCC(C(=O)Nc2ccc(Oc3ccccc3)nc2)CC1,–,"inconclusive [activator, partial curve]"
CCCOc1ccc(/C=N/Nc2ccc(C(=O)O)cc2)c(OCCC)c1,–,"inconclusive [activator, partial curve]"
Cc1nc2ccc(NC(=O)COc3cccc(F)c3)cc2s1,inactive: -3.36%,–
CC(C)c1cccc(C(C)C)c1NC(=O)COC(=O)[C@H](C)NC(N)=O,inactive: 13.9%,–
COc1ccc(CCN(Cc2cc3cc(C)cc(C)c3nc2Cl)C(=O)C2CC2)cc1,inactive: -9.76%,–
COC(=O)[C@@]1(Cc2ccc(F)cc2)[C@H]2c3cc(C(=O)N4CCCC4)n(CCCNc4ncc(C(F)(F)F)cc4Cl)c3C[C@H]2CN1C(=O)c1ccccc1,inactive: -0.38%,–
CCOC(=O)c1sc(Nc2nc3c(F)cccc3s2)cc1C,–,"inconclusive [activator, single point]"
CCOC(=O)CNC(=O)Cn1cnc2c(oc3ccccc32)c1=O,inactive: 2.45%,–
CC1CCCC(C)N1CCCNC(=O)c1ccc2nc(N3CCCCC3)sc2c1 (configuration not stated),–,"inconclusive [activator, full curve]"
c1ccc(CCSc2ncnc3nc[nH]c23)cc1,–,"inconclusive [activator, partial curve]"
C/C(=N\NC(=O)c1ccccc1F)c1cccc(NC(=O)c2ccc(C)cc2)c1,–,"inconclusive [activator, partial curve]"
OC1CCC(NC(=S)Nc2ccc(SC(F)F)cc2)CC1 (configuration not stated),–,"inconclusive [activator, single point]"
O=C(Nc1nc(-c2ccc(F)c(F)c2)cs1)C1=COCCO1,–,"inconclusive [activator, single point]"

SMILES,"activation, negative = inhibition",Potency
O=C(c1nnc(-c2ccc(Cl)cc2)o1)C1CCCC1,–,"inconclusive [activator, partial curve]"
CCOC(=O)c1c(C)[nH]c(N=Nc2cccc(C)c2)c1C,–,active: 2.82 µM
Cn1nc(C(=O)OCC(=O)Nc2ccc(Cl)cc2Cl)c2ccccc2c1=O,inactive: -1.23%,–
COCCN1C(=O)C(=O)/C(=C(/O)c2ccc(C)cc2)C1c1ccccn1 (configuration not stated),inactive: -2.25%,–
O=C(COC(=O)C12CC3CC(CC(O)(C3)C1)C2)Nc1ccc(Br)cc1F,–,active: 3.55 µM
CC(=O)c1ccc(N2Cc3ccccc3C2=NC(=O)c2cccs2)cc1,–,"inconclusive [activator, single point]"
CC(C)Cn1c(=O)c2ccccc2n2c(CCC(=O)O)nnc12,inactive: 5.88%,–
CC(NC(=O)CCc1nnc(CCCc2ccccc2)o1)c1ccccc1 (configuration not stated),–,"inconclusive [activator, single point]"
CCc1c(C)nc(Nc2nc(C)c3ccc(OC)cc3n2)[nH]c1=O,–,"inconclusive [activator, single point]"
COC(=O)N/N=C(\C)c1ccc(-n2ccnc2)cc1,inactive: 17.3%,–
COc1ccc(/C=C2\SC(=N)N(c3ccc(F)cc3)C2=O)cc1OC,–,"inconclusive [activator, single point]"
Cc1cc(C(=O)CN2C(=O)c3ccccc3S2(=O)=O)c(C)n1C(C)C,–,"inconclusive [activator, full curve]"
N#C/C(=C\c1ccccc1OCC(=O)O)c1nc2ccccc2[nH]1,inactive: -3.1%,–
COc1ccccc1/C=C/C=N/n1c(-c2ccc(C)cc2)n[nH]c1=S,inactive: -4.01%,–
COC(=O)c1cccc(NC(=O)CCN2C(=O)C3CC=CCC3C2=O)c1 (configuration not stated),inactive: -2%,–
COc1ccc(/C=C/C(=O)c2ccc(O)cc2)cc1COc1ccc(F)cc1,inactive: 2.49%,–
O=C(/C=C/NCc1cccnc1)c1ccc(-c2ccccc2)cc1,–,"inconclusive [activator, partial curve]"
O=C(O)c1ccc(CSc2nnc(SCc3ccccc3)s2)cc1,inactive: 1.11%,–
CCCc1cnc(N2CCN(S(C)(=O)=O)CC2)nc1,–,"inconclusive [activator, single point]"
